{
  "source": "the supplement of paper PMC3334620",
  "note": "Whole data set: some 33,000 sequences, median “E-score (-0.5 to 0.5)” near -0.043, cut for the highest 2% near 0.37. The list shows a part of the results.",
  "data": [
    {"target": "T1, Upc2 (UniProt Q12151)", "T1 sequence": "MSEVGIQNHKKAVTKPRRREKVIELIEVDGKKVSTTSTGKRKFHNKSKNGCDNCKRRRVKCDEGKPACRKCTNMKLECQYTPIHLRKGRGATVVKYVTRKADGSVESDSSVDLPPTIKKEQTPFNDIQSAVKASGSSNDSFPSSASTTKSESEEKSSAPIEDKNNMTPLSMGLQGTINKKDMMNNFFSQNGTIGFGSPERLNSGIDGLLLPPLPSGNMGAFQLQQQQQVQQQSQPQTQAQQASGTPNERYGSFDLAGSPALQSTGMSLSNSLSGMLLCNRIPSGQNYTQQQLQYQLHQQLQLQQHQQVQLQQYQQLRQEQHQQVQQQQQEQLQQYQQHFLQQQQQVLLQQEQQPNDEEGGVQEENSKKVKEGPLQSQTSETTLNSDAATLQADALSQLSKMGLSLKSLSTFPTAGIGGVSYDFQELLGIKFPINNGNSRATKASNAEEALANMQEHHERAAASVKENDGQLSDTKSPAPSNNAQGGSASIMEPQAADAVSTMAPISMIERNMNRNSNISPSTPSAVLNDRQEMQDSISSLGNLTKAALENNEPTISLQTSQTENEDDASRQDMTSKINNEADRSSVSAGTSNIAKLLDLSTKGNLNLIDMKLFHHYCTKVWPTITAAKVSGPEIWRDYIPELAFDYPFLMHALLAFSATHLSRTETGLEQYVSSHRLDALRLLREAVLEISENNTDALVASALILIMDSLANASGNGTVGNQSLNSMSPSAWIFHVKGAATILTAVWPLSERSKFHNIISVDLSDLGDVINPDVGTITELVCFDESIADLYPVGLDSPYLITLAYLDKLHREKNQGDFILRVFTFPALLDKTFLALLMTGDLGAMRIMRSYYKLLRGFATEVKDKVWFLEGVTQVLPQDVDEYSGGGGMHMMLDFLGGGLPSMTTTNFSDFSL", "assay": "PBM E-score (8-mer binding enrichment) (E-score (-0.5 to 0.5)); higher = stronger / more preferred TF binding; most listed sequences are background and not binding sites", "details": "protein concentration: 200 nM; construct: GST-full length", "summary_of_the_method": "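Each ungapped eight-base word and its reverse complement, pooled, received an E-score from the Universal PBM Analysis Suite. Underlying scans, normalised with masliner, recorded fluorescent anti-GST bound to GST-tagged yeast transcription factors. These were applied at about 100-200 nM to universal all-10-mer Agilent arrays double-stranded by primer extension.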", "values": [
      {"sequence": "TACATCAA", "PBM E-score": -0.138},
      {"sequence": "AGATTTGG", "PBM E-score": -0.0954},
      {"sequence": "CCGACTCG", "PBM E-score": 0.0772},
      {"sequence": "AAGCGGCG", "PBM E-score": 0.131},
      {"sequence": "GAGTGGGC", "PBM E-score": -0.0571},
      {"sequence": "AATTCTGC", "PBM E-score": -0.0392},
      {"sequence": "GCAGAGCC", "PBM E-score": -0.0234},
      {"sequence": "CTATTGCC", "PBM E-score": -0.25},
      {"sequence": "AACACTGA", "PBM E-score": 0.0163},
      {"sequence": "AACGGAAG", "PBM E-score": 0.186},
      {"sequence": "CCGTTCAA", "PBM E-score": 0.322},
      {"sequence": "GTAATCCA", "PBM E-score": -0.113},
      {"sequence": "AGAATCAA", "PBM E-score": 0.0541},
      {"sequence": "CCGAAACC", "PBM E-score": 0.055},
      {"sequence": "ACTCCATG", "PBM E-score": -0.168},
      {"sequence": "CACGCTAG", "PBM E-score": -0.195},
      {"sequence": "GGGCTAAC", "PBM E-score": -0.231},
      {"sequence": "AACTCATC", "PBM E-score": -0.044},
      {"sequence": "CGGCGTGC", "PBM E-score": -0.18},
      {"sequence": "GTTGCCCA", "PBM E-score": 0.0762},
      {"sequence": "AGCTTGTG", "PBM E-score": -0.256},
      {"sequence": "GTGCTACA", "PBM E-score": -0.31},
      {"sequence": "GGATCCCC", "PBM E-score": -0.202},
      {"sequence": "CATCTGCA", "PBM E-score": -0.216},
      {"sequence": "CTTGGCCC", "PBM E-score": -0.171},
      {"sequence": "ATACTCCC", "PBM E-score": -0.196},
      {"sequence": "AAGTAGTA", "PBM E-score": 0.0101},
      {"sequence": "CGCGAATC", "PBM E-score": 0.108},
      {"sequence": "ACCAAGAA", "PBM E-score": -0.0287},
      {"sequence": "TTCGAAAA", "PBM E-score": 0.149},
      {"sequence": "ATTTAGCA", "PBM E-score": -0.0363},
      {"sequence": "TAGCAGAA", "PBM E-score": 0.012},
      {"sequence": "AGGATGAG", "PBM E-score": -0.143},
      {"sequence": "ACGTGGAA", "PBM E-score": 0.111},
      {"sequence": "AGGGAGAC", "PBM E-score": -0.076},
      {"sequence": "CCTCTGGC", "PBM E-score": -0.128},
      {"sequence": "GAGGGAGC", "PBM E-score": -0.193},
      {"sequence": "CCGGCGAG", "PBM E-score": 0.0189},
      {"sequence": "AGGTTTAA", "PBM E-score": -0.0168},
      {"sequence": "CGTCAGTA", "PBM E-score": -0.105},
      {"sequence": "AAAACGAG", "PBM E-score": 0.316},
      {"sequence": "ATCCCCTG", "PBM E-score": -0.0998},
      {"sequence": "ACTGCTTG", "PBM E-score": -0.219},
      {"sequence": "ACTACAGA", "PBM E-score": 0.155},
      {"sequence": "TGATATAA", "PBM E-score": -0.14},
      {"sequence": "ATTAGTTA", "PBM E-score": -0.0252},
      {"sequence": "CAGCCGAC", "PBM E-score": -0.138},
      {"sequence": "TCCTTAGA", "PBM E-score": -0.279},
      {"sequence": "CACGTCCA", "PBM E-score": 0.0152},
      {"sequence": "AGACCTGA", "PBM E-score": -0.134},
      {"sequence": "ATCGCGCA", "PBM E-score": -0.11},
      {"sequence": "GAACACAA", "PBM E-score": 0.162},
      {"sequence": "GTCATCAC", "PBM E-score": -0.0856},
      {"sequence": "GCCTCTCC", "PBM E-score": -0.292},
      {"sequence": "AATATTAG", "PBM E-score": 0.21},
      {"sequence": "ATGCTGAA", "PBM E-score": -0.151},
      {"sequence": "AAGCCATC", "PBM E-score": -0.0205},
      {"sequence": "ACAGTAGG", "PBM E-score": 0.0839},
      {"sequence": "AGCGCACG", "PBM E-score": 0.139},
      {"sequence": "ATTCAGTG", "PBM E-score": -0.126},
      {"sequence": "AGACTATC", "PBM E-score": -0.0269},
      {"sequence": "TAGGGAGA", "PBM E-score": -0.217},
      {"sequence": "AGGCGTGC", "PBM E-score": -0.0583},
      {"sequence": "AGTTCGAA", "PBM E-score": 0.0491},
      {"sequence": "CTTCGGTA", "PBM E-score": 0.125},
      {"sequence": "GCCTCTTA", "PBM E-score": 0.183},
      {"sequence": "GTAACAAA", "PBM E-score": 0.0869},
      {"sequence": "CACTGACC", "PBM E-score": -0.0556},
      {"sequence": "CTCTCAAC", "PBM E-score": -0.0848},
      {"sequence": "AGAGGATG", "PBM E-score": -0.191},
      {"sequence": "AACACAGG", "PBM E-score": -0.2},
      {"sequence": "ACCTCACG", "PBM E-score": -0.295},
      {"sequence": "GGTATCGA", "PBM E-score": 0.0592},
      {"sequence": "CTAATGCC", "PBM E-score": -0.00798},
      {"sequence": "CGTGAACC", "PBM E-score": -0.0604},
      {"sequence": "ACCGTATC", "PBM E-score": 0.345},
      {"sequence": "CATATAAG", "PBM E-score": 0.17},
      {"sequence": "CGATTACC", "PBM E-score": 0.128},
      {"sequence": "AGGCTAAG", "PBM E-score": -0.179},
      {"sequence": "AGACAAAT", "PBM E-score": -0.0378},
      {"sequence": "CTTCGCTA", "PBM E-score": 0.169},
      {"sequence": "TCAGAGAA", "PBM E-score": -0.213},
      {"sequence": "ACTTCCAT", "PBM E-score": 0.044},
      {"sequence": "GGGTCCTA", "PBM E-score": -0.201},
      {"sequence": "CATTGACC", "PBM E-score": 0.0125},
      {"sequence": "CGACAACA", "PBM E-score": 0.131},
      {"sequence": "ATTTTCCA", "PBM E-score": 0.0183},
      {"sequence": "GGTCGCAC", "PBM E-score": 0.138},
      {"sequence": "CTTCATAA", "PBM E-score": -0.121},
      {"sequence": "CCACTAGG", "PBM E-score": -0.397},
      {"sequence": "AATACCGC", "PBM E-score": -0.131},
      {"sequence": "TGCCCGAA", "PBM E-score": 0.0305},
      {"sequence": "GAGAAGCC", "PBM E-score": -0.171},
      {"sequence": "ACGCCTTA", "PBM E-score": 0.132},
      {"sequence": "GTATCCGA", "PBM E-score": 0.287},
      {"sequence": "CCACGGAA", "PBM E-score": 0.00559},
      {"sequence": "GAAGTCGC", "PBM E-score": 0.053},
      {"sequence": "GAGCTACC", "PBM E-score": -0.156},
      {"sequence": "GCTGTGCC", "PBM E-score": -0.233},
      {"sequence": "CCAATAAG", "PBM E-score": -0.2},
      {"sequence": "CAGCCACG", "PBM E-score": -0.14},
      {"sequence": "ACAAGGCA", "PBM E-score": -0.202},
      {"sequence": "ACTACCTG", "PBM E-score": -0.089},
      {"sequence": "GAGTGGCA", "PBM E-score": -0.0426},
      {"sequence": "AGTCTCAA", "PBM E-score": -0.0862},
      {"sequence": "GTACACAC", "PBM E-score": 0.288},
      {"sequence": "AGAAATCC", "PBM E-score": 0.00939},
      {"sequence": "AGGGATTA", "PBM E-score": 0.0294},
      {"sequence": "AATCCGTC", "PBM E-score": -0.0144}
    ]}
  ]
}
